This is one part of the list.
Columns and labels:
Assay in all cases: glycan array binding signal (z-score within array); higher = stronger binding
Settings in all cases: glycan notation: IUPAC condensed, linker removed
Gal(a1-3)Gal(b1-3)GlcNAc = molecular target: Gal(a1-3)Gal(b1-3)GlcNAc
Procedure, shortened: (§1)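 The Consortium for Functional Glycomics database supplied 3228 glycan arrays, of which those lacking an available protein sequence were dropped. The binding signal, a within-array Z-score, was averaged across arrays of the same protein sequence and across linkers. Negative scores can be read as non-binding.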

[1] = molecular target: Gal(a1-3)Gal(b1-3)GlcNAc(b1-2)Man
Procedure, shortened: as §1

[2] = molecular target: Gal(a1-3)Gal(b1-3)GlcNAc(b1-2)Man(a1-3)[Gal(a1-3)Gal(b1-3)GlcNAc(b1-2)Man(a1-6)]Man(b1-4)GlcNAc(b1-4)GlcNAc
Procedure, shortened: as §1

[3] = molecular target: Gal(a1-3)Gal(b1-3)GlcNAc(b1-3)GalNAc
Procedure, shortened: as §1

[4] = molecular target: Gal(a1-3)Gal(b1-3)GlcNAc(b1-6)GalNAc
Procedure, shortened: as §1

[5] = molecular target: Gal(a1-3)Gal(b1-3)[Fuc(a1-4)]GlcNAc(b1-2)Man(a1-3)[Gal(a1-3)Gal(b1-3)[Fuc(a1-4)]GlcNAc(b1-2)Man(a1-6)]Man(b1-4)GlcNAc(b1-4)GlcNAc
Procedure, shortened: as §1

Gal(a1-3)Gal(b1-4)Glc = molecular target: Gal(a1-3)Gal(b1-4)Glc
Procedure, shortened: as §1

Gal(a1-3)Gal(b1-4)GlcNAc = molecular target: Gal(a1-3)Gal(b1-4)GlcNAc
Procedure, shortened: as §1

[6] = molecular target: Gal(a1-3)Gal(b1-4)GlcNAc(b1-2)Man
Procedure, shortened: as §1

[7] = molecular target: Gal(a1-3)Gal(b1-4)GlcNAc(b1-2)Man(a1-3)[Gal(a1-3)Gal(b1-4)GlcNAc(b1-2)Man(a1-6)]Man(b1-4)GlcNAc(b1-4)GlcNAc
Procedure, shortened: as §1

[8] = molecular target: Gal(a1-3)Gal(b1-4)GlcNAc(b1-3)GalNAc
Procedure, shortened: as §1

[9] = molecular target: Gal(a1-3)Gal(b1-4)GlcNAc(b1-6)GalNAc
Procedure, shortened: as §1

[10] = molecular target: Gal(a1-3)Gal(b1-4)[Fuc(a1-3)]GlcNAc
Procedure, shortened: as §1

[11] = molecular target: Gal(a1-3)Gal(b1-4)[Fuc(a1-3)]GlcNAc(b1-2)Man(a1-3)[Gal(a1-3)Gal(b1-4)[Fuc(a1-3)]GlcNAc(b1-2)Man(a1-6)]Man(b1-4)GlcNAc(b1-4)GlcNAc
Procedure, shortened: as §1

Gal(a1-3)GalNAc = molecular target: Gal(a1-3)GalNAc
Procedure, shortened: as §1

[12] = molecular target: Gal(a1-3)[Gal(a1-4)]Gal(b1-4)GlcNAc
Procedure, shortened: as §1

[13] = molecular target: Gal(a1-4)Gal(b1-3)GlcNAc(b1-2)Man(a1-3)[Gal(a1-4)Gal(b1-3)GlcNAc(b1-2)Man(a1-6)]Man(b1-4)GlcNAc(b1-4)GlcNAc
Procedure, shortened: as §1

Gal(a1-4)Gal(b1-4)Glc = molecular target: Gal(a1-4)Gal(b1-4)Glc
Procedure, shortened: as §1

Gal(a1-4)Gal(b1-4)GlcNAc = molecular target: Gal(a1-4)Gal(b1-4)GlcNAc
Procedure, shortened: as §1

[14] = molecular target: Gal(a1-4)Gal(b1-4)GlcNAc(b1-2)Man(a1-3)[Gal(a1-4)Gal(b1-4)GlcNAc(b1-2)Man(a1-6)]Man(b1-4)GlcNAc(b1-4)GlcNAc
Procedure, shortened: as §1

[15] = molecular target: Gal(a1-4)Gal(b1-4)GlcNAc(b1-3)Gal(b1-4)Glc
Procedure, shortened: as §1

Gal(a1-4)GlcNAc = molecular target: Gal(a1-4)GlcNAc
Procedure, shortened: as §1

Gal(a1-6)Glc = molecular target: Gal(a1-6)Glc
Procedure, shortened: as §1

Gal(b1-2)Gal = molecular target: Gal(b1-2)Gal
Procedure, shortened: as §1

Gal(b1-3)Gal = molecular target: Gal(b1-3)Gal
Procedure, shortened: as §1

Gal(b1-3)Gal(b1-4)GlcNAc = molecular target: Gal(b1-3)Gal(b1-4)GlcNAc
Procedure, shortened: as §1

Gal(b1-3)GalNAc = molecular target: Gal(b1-3)GalNAc
Procedure, shortened: as §1

[16] = molecular target: Gal(b1-3)GalNAc(a1-3)[Fuc(a1-2)]Gal(b1-4)Glc
Procedure, shortened: as §1

[17] = molecular target: Gal(b1-3)GalNAc(a1-3)[Fuc(a1-2)]Gal(b1-4)GlcNAc
Procedure, shortened: as §1

Gal(b1-3)GalNAc(b1-3)Gal = molecular target: Gal(b1-3)GalNAc(b1-3)Gal
Procedure, shortened: as §1

[18] = molecular target: Gal(b1-3)GalNAc(b1-3)Gal(a1-4)Gal(b1-4)Glc
Procedure, shortened: as §1

[19] = molecular target: Gal(b1-3)GalNAc(b1-4)Gal(b1-4)Glc
Procedure, shortened: as §1

[20] = molecular target: Gal(b1-3)GalNAc(b1-4)[Neu5Ac(a2-3)]Gal(b1-4)Glc
Procedure, shortened: as §1

Gal(b1-3)GlcNAc = molecular target: Gal(b1-3)GlcNAc
Procedure, shortened: as §1

[21] = molecular target: Gal(b1-3)GlcNAc(a1-3)Gal(b1-4)GlcNAc
Procedure, shortened: as §1

[22] = molecular target: Gal(b1-3)GlcNAc(a1-6)Gal(b1-4)GlcNAc
Procedure, shortened: as §1

Gal(b1-3)GlcNAc(b1-2)Man = molecular target: Gal(b1-3)GlcNAc(b1-2)Man
Procedure, shortened: as §1

[23] = molecular target: Gal(b1-3)GlcNAc(b1-2)Man(a1-3)[Gal(b1-3)GlcNAc(b1-2)Man(a1-6)]Man(b1-4)GlcNAc(b1-4)GlcNAc
Procedure, shortened: as §1

B1: PX14343B-bfa-546-20-546 (Bacteroides fragilis) (protein)
chain: CDLERYPLTDLSEETFWNSESNAELALTSLYRGSLTDGVEYNPSDWWSYHGMIMMEHLSDNAFDRRGENNPFFKISSGNLTADNAFIKRYWETSYKRIGYCNRFLVGIQNSSESEKKTRMIAEARFLRATQYFYLASYFKNVPLVENVLTGEEANNVTKTSQADILKWCVTEFTAAAADLPRFSAIPAGEAGRACKQAALAFLGRTCMLQKDWKSGAKAFHDIMELGDNAINANYQELFYPSTGTSNKENIFYIQYLENYLGTGLPQHALSAKDGGWSLVNPAADLYESYEFKDGTPFSYDDPRYDPSNLGKDRDPRLDYTIYYNGAIFMGTEYKMSPDYSAAKKEKLDYTSEASRTGFMMRKYFEESTPINDVQSANGLTPVIRYAEVLLGYLECLVEDNQTITQGILDETINAVRGRASVNMPPVTEVTPAKLREIVRHERRIELAMEGIRYWDIMRWGIAHEVLSQKIWGAPYPGSTQYATTTKEVDPTGNYRWYVGKRAFRNPTDYTWPIPQSEQNINPNLRD
**Q.** Which results are given for B1?
**A.** glycan array binding signal (z-score) (Gal(a1-3)Gal(b1-3)GlcNAc): -0.104; glycan array binding signal (z-score) [1]: -0.129; glycan array binding signal (z-score) [2]: -0.124; glycan array binding signal (z-score) [3]: -0.134; glycan array binding signal (z-score) [4]: -0.11; glycan array binding signal (z-score) [5]: -0.096; glycan array binding signal (z-score) (Gal(a1-3)Gal(b1-4)Glc): -0.115; glycan array binding signal (z-score) (Gal(a1-3)Gal(b1-4)GlcNAc): -0.122; glycan array binding signal (z-score) [6]: -0.086; glycan array binding signal (z-score) [7]: -0.105; glycan array binding signal (z-score) [8]: -0.122; glycan array binding signal (z-score) [9]: -0.107; glycan array binding signal (z-score) [10]: -0.129; glycan array binding signal (z-score) [11]: -0.101; glycan array binding signal (z-score) (Gal(a1-3)GalNAc): -0.118; glycan array binding signal (z-score) [12]: -0.118; glycan array binding signal (z-score) [13]: -0.115; glycan array binding signal (z-score) (Gal(a1-4)Gal(b1-4)Glc): -0.109; glycan array binding signal (z-score) (Gal(a1-4)Gal(b1-4)GlcNAc): -0.12; glycan array binding signal (z-score) [14]: -0.115; glycan array binding signal (z-score) [15]: -0.128; glycan array binding signal (z-score) (Gal(a1-4)GlcNAc): -0.12; glycan array binding signal (z-score) (Gal(a1-6)Glc): -0.127; glycan array binding signal (z-score) (Gal(b1-2)Gal): -0.114; glycan array binding signal (z-score) (Gal(b1-3)Gal): -0.113; glycan array binding signal (z-score) (Gal(b1-3)Gal(b1-4)GlcNAc): -0.113; glycan array binding signal (z-score) (Gal(b1-3)GalNAc): -0.127; glycan array binding signal (z-score) [16]: -0.122; glycan array binding signal (z-score) [17]: -0.121; glycan array binding signal (z-score) (Gal(b1-3)GalNAc(b1-3)Gal): -0.126; glycan array binding signal (z-score) [18]: -0.126; glycan array binding signal (z-score) [19]: -0.115; glycan array binding signal (z-score) [20]: -0.115; glycan array binding signal (z-score) (Gal(b1-3)GlcNAc): -0.115; glycan array binding signal (z-score) [21]: -0.129; glycan array binding signal (z-score) [22]: -0.121; glycan array binding signal (z-score) (Gal(b1-3)GlcNAc(b1-2)Man): -0.12; glycan array binding signal (z-score) [23]: -0.106
